IC50 is the fitted dose that halves viability relative to control wells, and lower means more sensitive; fits outside the tested doses are given as limits. AUC is the area under the same curve over the 256-fold range up to the top dose, as a fraction: 1 means no effect, lower means more sensitive. For some assays here: The top dose, if marked as inferred, was calculated from the reported fits. For some assays here: Where an entry number is given, a second screen of the drug exists; the two often differ.
Legend:
Assay in all cases: Viability of human cancer cell lines after 72 h of drug (GDSC screen)
[1] = compound: Cc1ccc(C(=O)N(CCCN)[C@@H](c2nc3cc(Cl)ccc3c(=O)n2Cc2ccccc2)C(C)C)cc1 [SB-715992]; settings: top dose 0.128 µM; top dose inferred
Procedure: (§1)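 Human cancer cell lines in 384-well plates, medium with 10% serum, drug for 72 h over a 256-fold dose range (nine 2-fold or five 4-fold steps up to the top dose). Adherent lines were fixed and stained with the nucleic acid dye Syto60, suspension lines read with resazurin; signal relative to control wells, capped at 0 and 100%. One two-parameter sigmoid per drug and line, fitted in a mixed model over all curves with the slope shared within a line.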

[2] = compound: OCCCNc1cc(-c2ccnc(Nc3cccc(Cl)c3)n2)ccn1 [CGP-60474]; settings: top dose 0.256 µM; top dose inferred
Procedure: as §1

[3] = compound: COC(=O)[C@H](CCSC)NC(=O)c1ccc(NC[C@@H](N)CS)cc1-c1ccccc1 [FTI-277]; settings: top dose 1.024 µM; top dose inferred
Procedure: as §1

[4] = compound: O=C(/C=C/c1cccc(S(=O)(=O)Nc2ccccc2)c1)NO [Belinostat]; settings: top dose 20 µM; top dose inferred
Procedure: as §1

[5] = compound: Cc1sc2c(c1C)C(c1ccc(Cl)cc1)=N[C@@H](CC(=O)OC(C)(C)C)c1nnc(C)n1-2 [JQ1]
Procedure: as §1

[6] = compound: COc1cc(N2CCC(N3CCN(C)CC3)CC2)ccc1Nc1ncc(Cl)c(Nc2ccccc2S(=O)(=O)C(C)C)n1 [NVP-TAE684]; settings: top dose 2 µM
Procedure: as §1

[7] = compound: CC1(C)CNc2cc(NC(=O)c3cccnc3NCc3ccncc3)ccc21 [AMG-706]; settings: top dose 2 µM; top dose inferred
Procedure: as §1

[8] = compound: c1ccc2c(CCNc3ccc(Nc4ccncc4)cc3)c[nH]c2c1 [JNJ-26854165]; settings: top dose 10 µM
Procedure: as §1

[9] = compound: CC1=C2C[C@H]3[C@@H](CC=C4C[C@@H](O)CC[C@@]43C)[C@@H]2CC[C@]12O[C@@H]1C[C@H](C)CN[C@H]1[C@H]2C [Cyclopamine]; settings: top dose 16 µM; top dose inferred
Procedure: as §1

[10] = compound: CCOc1nc(NC(=O)Cc2cc(OC)ccc2OC)cc(N)c1C#N [JNK Inhibitor VIII]; settings: top dose 10 µM; top dose inferred
Procedure: as §1

[11] = compound: C[C@]1(O)C[C@@H](c2nc(-c3ccc4ccc(-c5ccccc5)nc4c3)c3c(N)nccn32)C1 [OSI-906]; settings: top dose 2.56 µM; top dose inferred
Procedure: as §1

[12] = compound: CN1CCN(c2ccc([N+](=O)[O-])c3no[n+]([O-])c23)CC1 [NSC-207895]; settings: top dose 20 µM; top dose inferred
Procedure: as §1

[13] = compound: COCC[n+]1c2c(n(Cc3cnccn3)c1C)C(=O)c1ccccc1C2=O [YM155]; settings: top dose 5.12 µM
Procedure: as §1

[14] = compound: CC(=O)O[C@@]12CO[C@@H]1C[C@H](O)[C@@]1(C)C(=O)[C@H](O)C3=C(C)[C@@H](OC(=O)[C@H](O)[C@@H](NC(=O)OC(C)(C)C)c4ccccc4)C[C@@](O)([C@@H](OC(=O)c4ccccc4)[C@H]21)C3(C)C [Docetaxel]; settings: top dose 0.0125 µM
Procedure: as §1

[15] = top dose 1 µM, screen: GDSC drug entry 1218, top dose inferred
[16] = top dose 2.56 µM, screen: GDSC drug entry 163

Cell Line: OCI-LY-19 (B-cell lymphoma, suspension)
- AUC [1]: 0.536
- IC50 [1]: 9.95 nM
- AUC [2]: 0.668
- IC50 [2]: 45.2 nM
- AUC [3]: 0.967
- IC50 [3]: > 1020 nM
- AUC [4]: 0.211
- IC50 [4]: 193 nM
- AUC [5, 15]: 0.956
- IC50 [5, 15]: > 1000 nM
- AUC [5, 16]: 0.545
- IC50 [5, 16]: 210 nM
- AUC [6]: 0.786
- IC50 [6]: 789 nM
- AUC [7]: 0.988
- IC50 [7]: > 2000 nM
- AUC [8]: 0.943
- IC50 [8]: > 10000 nM
- AUC [9]: 0.985
- IC50 [9]: > 16000 nM
- AUC [10]: 0.988
- IC50 [10]: > 10000 nM
- AUC [11]: 0.738
- IC50 [11]: 717 nM
- AUC [12]: 0.81
- IC50 [12]: 9540 nM
- AUC [13]: 0.021
- IC50 [13]: < 20 nM

Cell Line: OVCAR-4 (ovary, adherent)
- AUC [1]: 0.957
- IC50 [1]: > 128 nM
- AUC [2]: 0.77
- IC50 [2]: 149 nM
- AUC [3]: 0.951
- IC50 [3]: > 1020 nM
- AUC [4]: 0.786
- IC50 [4]: 13800 nM
- AUC [5, 15]: 0.948
- IC50 [5, 15]: > 1000 nM
- AUC [5, 16]: 0.687
- IC50 [5, 16]: 700 nM
- AUC [6]: 0.665
- IC50 [6]: 453 nM
- AUC [7]: 0.965
- IC50 [7]: > 2000 nM
- AUC [8]: 0.83
- IC50 [8]: > 10000 nM
- AUC [9]: 0.923
- IC50 [9]: > 16000 nM
- AUC [10]: 0.95
- IC50 [10]: > 10000 nM
- AUC [11]: 0.911
- IC50 [11]: > 2560 nM
- AUC [12]: 0.961
- IC50 [12]: > 20000 nM
- AUC [13]: 0.044
- IC50 [13]: < 20 nM

Cell Line: PL-21 (acute myeloid leukaemia, suspension)
- AUC [1]: 0.657
- IC50 [1]: 23.7 nM
- AUC [2]: 0.685
- IC50 [2]: 58 nM
- AUC [3]: 0.97
- IC50 [3]: > 1020 nM
- AUC [4]: 0.523
- IC50 [4]: 1460 nM
- AUC [5, 15]: 0.969
- IC50 [5, 15]: > 1000 nM
- AUC [5, 16]: 0.633
- IC50 [5, 16]: 399 nM
- AUC [6]: 0.675
- IC50 [6]: 420 nM
- AUC [8]: 0.906
- IC50 [8]: > 10000 nM
- AUC [9]: 0.979
- IC50 [9]: > 16000 nM
- AUC [14]: 0.863
- IC50 [14]: > 12.5 nM
- AUC [11]: 0.572
- IC50 [11]: 260 nM
- AUC [12]: 0.931
- IC50 [12]: > 20000 nM
- AUC [13]: 0.271
- IC50 [13]: 63.3 nM

Cell Line: SCC-15 (head and neck, adherent)
- AUC [1]: 0.938
- IC50 [1]: > 128 nM
- AUC [2]: 0.876
- IC50 [2]: > 256 nM
- AUC [3]: 0.967
- IC50 [3]: > 1020 nM
- AUC [4]: 0.527
- IC50 [4]: 1520 nM
- AUC [5, 15]: 0.943
- IC50 [5, 15]: > 1000 nM
- AUC [5, 16]: 0.635
- IC50 [5, 16]: 429 nM
- AUC [6]: 0.979
- IC50 [6]: > 2000 nM
- AUC [7]: 0.956
- IC50 [7]: > 2000 nM
- AUC [8]: 0.98
- IC50 [8]: > 10000 nM
- AUC [9]: 0.936
- IC50 [9]: > 16000 nM
- AUC [10]: 0.908
- IC50 [10]: > 10000 nM
- AUC [11]: 0.893
- IC50 [11]: > 2560 nM
- AUC [12]: 0.939
- IC50 [12]: > 20000 nM
- AUC [13]: 0.056
- IC50 [13]: < 20 nM

From the supplement of paper PMC4967469
